The other results are listed elsewhere or left out. Single values are uncertain, as repeats are few or missing.
Each molecule was assayed on HCC-1187 (assay: cell viability relative to vehicle (% of vehicle); basal-like triple-negative breast cancer lines; higher = less cytotoxic). Conditions: 10 µM; 72 h.
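Further: stably firefly luciferase-GFP labeled cells in 96-well plates, viability read as luciferase photon flux after d-luciferin addition, treated wells normalized to vehicle wells, single-dose high-throughput screen.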

Q: For `NC(=O)c1cnccn1` [Pyrazinamide], which cell viability is on record?
A: Its cell viability is 85.6.

Q: Which cell viability does the source give for `COC(=O)C1=C(C)NC(C)=C(C(=O)OCCN(C)Cc2ccccc2)C1c1cccc([N+](=O)[O-])c1.Cl` (stereo unspecified) [Nicardipine HCl] here?
A: The cell viability was 109.

Q: For `COc1ccc(CN(CCN(C)C)c2ccccn2)cc1.O=C(O)/C=C\C(=O)O` [Mepyramine maleate], which cell viability is on record?
A: The cell viability was 90.5.

Q: `CCN1CCCC1CNC(=O)c1cc(S(=O)(=O)CC)c(N)cc1OC` (stereo unspecified) [Amisulpride] was tested. Which cell viability did it give?
A: The cell viability was 124.

Q: `CC1(C)SC2C(NC(=O)C(N)c3ccccc3)C(=O)N2C1C(=O)O.O.O.O` (stereo unspecified) [Ampicillin Trihydrate] was tested. Which cell viability did it give?
A: Its cell viability is 101.

Q: How did the cell viability turn out when `Nc1ccn(CC(CO)OCP(=O)(O)O)c(=O)n1.O.O` (stereo unspecified) [Cidofovir dihydrate] was run?
A: The cell viability was 77.1.

Q: With `Cc1c(OCC(F)(F)F)ccnc1CS(=O)c1nc2ccccc2[nH]1` (stereo unspecified) [Dexlansoprazole] as the molecule, how does the cell viability read?
A: The cell viability was 121.

Q: With `CNC(=O)CN(CCN(CCN(CC(=O)[O-])CC(=O)NC)CC(=O)[O-])CC(=O)[O-].O.[Gd+3]` [Gadodiamide] as the molecule, how does the cell viability read?
A: Its cell viability is 87.5.

Q: `Cc1c(OCC(F)(F)F)ccnc1CS(=O)c1nc2ccccc2[nH]1` (stereo unspecified) [Lansoprazole] was tested. Which cell viability did it give?
A: Its cell viability is 180.

Q: `CC(O)=C(C#N)C(=O)Nc1ccc(C(F)(F)F)cc1` [Teriflunomide] was tested. Which cell viability did it give?
A: The cell viability was 145.

Q: How did the cell viability turn out when `Cl.Nc1ccc(N=Nc2ccccc2)c(N)n1` [Phenazopyridine HCl] was run?
A: Its cell viability is 96.5.

Q: How did the cell viability turn out when `CN(C)CCc1c[nH]c2ccc(CS(=O)(=O)N3CCCC3)cc12.O=C(O)CC(O)C(=O)O` [Almotriptan Malate] was run?
A: The cell viability was 94.5.

Q: For `Cl.NNc1nncc2ccccc12` [Hydralazine HCl], which cell viability is on record?
A: Its cell viability is 71.9.

Q: `O=C(O)c1ccccc1` [Benzoic Acid] was tested. Which cell viability did it give?
A: The cell viability was 124.

Q: Which cell viability does the source give for `CC(C)(OCc1nn(Cc2ccccc2)c2ccccc12)C(=O)O` [Bindarit] here?
A: The cell viability was 82.8.

Q: With `Clc1ccc(COC(Cn2ccnc2)c2ccc(Cl)cc2Cl)c(Cl)c1.O=[N+]([O-])O` (stereo unspecified) [Miconazole Nitrate] as the molecule, how does the cell viability read?
A: The cell viability was 103.

Q: How did the cell viability turn out when `Nc1nc2ccc(OC(F)(F)F)cc2s1` [Riluzole] was run?
A: Its cell viability is 185.

Q: With `CN1C(C(=O)Nc2ccccn2)=C(O)c2sccc2S1(=O)=O` [Tenoxicam] as the molecule, how does the cell viability read?
A: Its cell viability is 95.4.

Q: With `COC(=O)CCc1ccc(OCC(O)CNC(C)C)cc1.Cl` (stereo unspecified) [Esmolol HCl] as the molecule, how does the cell viability read?
A: The cell viability was 101.

Q: `CC12C=CC(=O)C=C1CCC1C2C(O)CC2(C)C1CCC2(O)C(=O)CO` (stereo unspecified) [Prednisolone] was tested. Which cell viability did it give?
A: The cell viability was 111.

Q: How did the cell viability turn out when `CS(=O)(=O)O.CS(=O)(=O)O.N=C(N)c1ccc2cc(OC(=O)c3ccc(N=C(N)N)cc3)ccc2c1` [Nafamostat Mesylate(FUT-175)] was run?
A: The cell viability was 88.2.

Q: How did the cell viability turn out when `Cl.c1ccc2c(c1)CCCC2C1=NCCN1` (stereo unspecified) [Tetrahydrozoline HCl] was run?
A: Its cell viability is 98.8.

Q: For `Cc1oncc1C(=O)Nc1ccc(C(F)(F)F)cc1` [Leflunomide], which cell viability is on record?
A: The cell viability was 136.

Q: `Cc1cn(C2CC(O)C(CO)O2)c(=O)[nH]c1=O` (stereo unspecified) [Telbivudine] was tested. Which cell viability did it give?
A: Its cell viability is 111.

Q: With `O=c1c(-c2ccc(O)cc2)coc2cc(O)cc(O)c12` [Genistein] as the molecule, how does the cell viability read?
A: Its cell viability is 120.

Q: With `OC(Cn1cncn1)(Cn1cncn1)c1ccc(F)cc1F` [Fluconazole hydrate] as the molecule, how does the cell viability read?
A: Its cell viability is 95.8.

Q: `CCCCc1oc2ccc(NS(C)(=O)=O)cc2c1C(=O)c1ccc(OCCCN(CCCC)CCCC)cc1` [Dronedarone] was tested. Which cell viability did it give?
A: Its cell viability is 101.

Q: `CCCCCOc1ccc(-c2cc(-c3ccc(C(=O)NC4CC(O)C(O)NC(=O)C5C(O)C(C)CN5C(=O)C(C(O)CC(N)=O)NC(=O)C(C(O)C(O)c5ccc(O)c(OS(=O)(=O)[O-])c5)NC(=O)C5CC(O)CN5C(=O)C(C(C)O)NC4=O)cc3)no2)cc1.[Na+]` (stereo unspecified) [Micafungin sodium] was tested. Which cell viability did it give?
A: The cell viability was 112.

Q: How did the cell viability turn out when `OC(Cn1cncn1)(Cn1cncn1)c1ccc(F)cc1F` [Fluconazole] was run?
A: The cell viability was 94.1.

Q: How did the cell viability turn out when `CC(C)NCC(O)COc1ccc(CCOCC2CC2)cc1.Cl` (stereo unspecified) [Levobetaxolol HCl] was run?
A: Its cell viability is 90.5.

Q: How did the cell viability turn out when `CCC(=O)OCC(=O)C1(OC(=O)CC)C(C)CC2C3CCC4=CC(=O)C=CC4(C)C3(Cl)C(O)CC21C` (stereo unspecified) [Beclomethasone dipropionate] was run?
A: The cell viability was 99.5.

Q: For `CCOc1ccc(NC(C)=O)cc1` [Phenacetin], which cell viability is on record?
A: The cell viability was 98.7.

Q: `CC(=O)OCC(=O)C1CCC2C3CCC4=CC(=O)CCC4(C)C3CCC12C` (stereo unspecified) [Deoxycorticosterone acetate] was tested. Which cell viability did it give?
A: Its cell viability is 132.

Q: Which cell viability does the source give for `OCC1OC(O)C(O)C(O)C1O` [Dextrose (D-glucose)] here?
A: Its cell viability is 123.

Q: With `CCCCOc1ccc(OCCCN2CCOCC2)cc1.Cl` [Pramoxine HCl] as the molecule, how does the cell viability read?
A: The cell viability was 113.

Q: With `Nc1ccn(C2OC(CO)C(O)C2(F)F)c(=O)n1` (stereo unspecified) [Gemcitabine] as the molecule, how does the cell viability read?
A: Its cell viability is 53.8.

The molecules below were run on MDA-468 in the same assay as above. Conditions: 10 µM; 72 h.

Q: Which cell viability does the source give for `NC(=O)c1cnccn1` [Pyrazinamide] here?
A: Its cell viability is 99.7.

Q: How did the cell viability turn out when `COC(=O)C1=C(C)NC(C)=C(C(=O)OCCN(C)Cc2ccccc2)C1c1cccc([N+](=O)[O-])c1.Cl` (stereo unspecified) [Nicardipine HCl] was run?
A: Its cell viability is 104.

Q: Which cell viability does the source give for `COc1ccc(CN(CCN(C)C)c2ccccn2)cc1.O=C(O)/C=C\C(=O)O` [Mepyramine maleate] here?
A: Its cell viability is 113.

Q: Which cell viability does the source give for `CCN1CCCC1CNC(=O)c1cc(S(=O)(=O)CC)c(N)cc1OC` (stereo unspecified) [Amisulpride] here?
A: Its cell viability is 101.

Q: How did the cell viability turn out when `Cc1ccc(NC(=O)c2ccc(CN3CCN(C)CC3)cc2)cc1Nc1nccc(-c2cccnc2)n1` [Imatinib (STI571)] was run?
A: Its cell viability is 127.

Q: With `CC1(C)SC2C(NC(=O)C(N)c3ccccc3)C(=O)N2C1C(=O)O.O.O.O` (stereo unspecified) [Ampicillin Trihydrate] as the molecule, how does the cell viability read?
A: Its cell viability is 101.

Q: `Nc1ccn(CC(CO)OCP(=O)(O)O)c(=O)n1.O.O` (stereo unspecified) [Cidofovir dihydrate] was tested. Which cell viability did it give?
A: Its cell viability is 109.

Q: `CNC(=O)CN(CCN(CCN(CC(=O)[O-])CC(=O)NC)CC(=O)[O-])CC(=O)[O-].O.[Gd+3]` [Gadodiamide] was tested. Which cell viability did it give?
A: The cell viability was 95.2.

Q: How did the cell viability turn out when `Cc1c(OCC(F)(F)F)ccnc1CS(=O)c1nc2ccccc2[nH]1` (stereo unspecified) [Lansoprazole] was run?
A: The cell viability was 169.

Q: Which cell viability does the source give for `CN(C)CCc1c[nH]c2ccc(CS(=O)(=O)N3CCCC3)cc12.O=C(O)CC(O)C(=O)O` [Almotriptan Malate] here?
A: Its cell viability is 101.

Q: Which cell viability does the source give for `Cl.NNc1nncc2ccccc12` [Hydralazine HCl] here?
A: The cell viability was 99.4.

Q: For `O=C(O)c1ccccc1` [Benzoic Acid], which cell viability is on record?
A: Its cell viability is 118.

Q: How did the cell viability turn out when `CC(C)(OCc1nn(Cc2ccccc2)c2ccccc12)C(=O)O` [Bindarit] was run?
A: Its cell viability is 93.

Q: Which cell viability does the source give for `Clc1ccc(COC(Cn2ccnc2)c2ccc(Cl)cc2Cl)c(Cl)c1.O=[N+]([O-])O` (stereo unspecified) [Miconazole Nitrate] here?
A: The cell viability was 113.

Q: `CN1C(C(=O)Nc2ccccn2)=C(O)c2sccc2S1(=O)=O` [Tenoxicam] was tested. Which cell viability did it give?
A: The cell viability was 109.

Q: How did the cell viability turn out when `COC(=O)CCc1ccc(OCC(O)CNC(C)C)cc1.Cl` (stereo unspecified) [Esmolol HCl] was run?
A: Its cell viability is 118.

Q: Which cell viability does the source give for `Cc1c(OCC(F)(F)F)ccnc1CS(=O)c1nc2ccccc2[n-]1.[Na+]` (stereo unspecified) [Lansoprazole sodium] here?
A: Its cell viability is 171.

Q: `CC12C=CC(=O)C=C1CCC1C2C(O)CC2(C)C1CCC2(O)C(=O)CO` (stereo unspecified) [Prednisolone] was tested. Which cell viability did it give?
A: The cell viability was 151.

Q: For `CS(=O)(=O)O.CS(=O)(=O)O.N=C(N)c1ccc2cc(OC(=O)c3ccc(N=C(N)N)cc3)ccc2c1` [Nafamostat Mesylate(FUT-175)], which cell viability is on record?
A: Its cell viability is 90.5.

Q: Which cell viability does the source give for `Cl.c1ccc2c(c1)CCCC2C1=NCCN1` (stereo unspecified) [Tetrahydrozoline HCl] here?
A: Its cell viability is 106.

Q: `Cc1oncc1C(=O)Nc1ccc(C(F)(F)F)cc1` [Leflunomide] was tested. Which cell viability did it give?
A: The cell viability was 159.

Q: Which cell viability does the source give for `Cc1cn(C2CC(O)C(CO)O2)c(=O)[nH]c1=O` (stereo unspecified) [Telbivudine] here?
A: Its cell viability is 120.

Q: With `O=c1c(-c2ccc(O)cc2)coc2cc(O)cc(O)c12` [Genistein] as the molecule, how does the cell viability read?
A: Its cell viability is 183.

Q: For `OC(Cn1cncn1)(Cn1cncn1)c1ccc(F)cc1F` [Fluconazole hydrate], which cell viability is on record?
A: The cell viability was 117.

Q: With `CCCCc1oc2ccc(NS(C)(=O)=O)cc2c1C(=O)c1ccc(OCCCN(CCCC)CCCC)cc1` [Dronedarone] as the molecule, how does the cell viability read?
A: The cell viability was 85.3.

Q: How did the cell viability turn out when `CCCCCOc1ccc(-c2cc(-c3ccc(C(=O)NC4CC(O)C(O)NC(=O)C5C(O)C(C)CN5C(=O)C(C(O)CC(N)=O)NC(=O)C(C(O)C(O)c5ccc(O)c(OS(=O)(=O)[O-])c5)NC(=O)C5CC(O)CN5C(=O)C(C(C)O)NC4=O)cc3)no2)cc1.[Na+]` (stereo unspecified) [Micafungin sodium] was run?
A: The cell viability was 83.6.

Q: `OC(Cn1cncn1)(Cn1cncn1)c1ccc(F)cc1F` [Fluconazole] was tested. Which cell viability did it give?
A: The cell viability was 100.

Q: For `CC(C)NCC(O)COc1ccc(CCOCC2CC2)cc1.Cl` (stereo unspecified) [Levobetaxolol HCl], which cell viability is on record?
A: The cell viability was 109.

Q: For `CS(=O)(=O)O.Cc1ccc(NC(=O)c2ccc(CN3CCN(C)CC3)cc2)cc1Nc1nccc(-c2cccnc2)n1` [Imatinib Mesylate (STI571)], which cell viability is on record?
A: The cell viability was 99.6.

Q: Which cell viability does the source give for `CCOc1ccc(NC(C)=O)cc1` [Phenacetin] here?
A: The cell viability was 112.

Q: Which cell viability does the source give for `CC(=O)OCC(=O)C1CCC2C3CCC4=CC(=O)CCC4(C)C3CCC12C` (stereo unspecified) [Deoxycorticosterone acetate] here?
A: Its cell viability is 160.

Q: Which cell viability does the source give for `OCC1OC(O)C(O)C(O)C1O` [Dextrose (D-glucose)] here?
A: The cell viability was 114.

Q: For `CC(=O)Oc1ccccc1C(=O)Nc1ncc([N+](=O)[O-])s1` [Nitazoxanide], which cell viability is on record?
A: The cell viability was 159.

Q: For `CCCCOc1ccc(OCCCN2CCOCC2)cc1.Cl` [Pramoxine HCl], which cell viability is on record?
A: The cell viability was 89.6.

Q: For `Nc1ccn(C2OC(CO)C(O)C2(F)F)c(=O)n1` (stereo unspecified) [Gemcitabine], which cell viability is on record?
A: Its cell viability is 50.5.

From the supplement of paper PMC8512760
